Results from the supplement of paper PMC11741623.
Some of the results follow. Interaction screen of human proteins with wild-type SARS-CoV-2 proteins by split-DHFR complementation in yeast, 1 µg/mL methotrexate. Value = fitness of the pair (three or more lineages) minus that of the viral protein without a human partner, on a scale set by negative (0) and fused positive (1) controls, mean of up to three cultures; higher = more likely to interact. Active = false discovery rate below 0.05 (one-sided t-test) in at least one culture. Nearly all pairs are not hits, and differences among them are mostly noise (correlation between cultures about 0.3); most hits were seen in one culture only. Human sequences are the Swiss-Prot entries looked up by gene name; the clone may be another isoform. NSP2 values were corrected by the authors for a growth advantage. Listed are human proteins with a hit and a random twelfth of the others.

How the values were obtained:
Assay in all cases: yeast fitness gain over the viral ORF with no human partner (scaled fitness); higher = more likely to interact
SARS-CoV-2 E = biological target: SARS-CoV-2 E
Protocol: (§1)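 Split mouse DHFR complementation in pooled diploid yeast: human ORFeome clones carry one fragment and viral ORFs the other; barcoded lineages compete in 1 µg/mL methotrexate and fitness is read by barcode sequencing in up to three cultures.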

SARS-CoV-2 M = biological target: SARS-CoV-2 M
Protocol: as §1

SARS-CoV-2 N = biological target: SARS-CoV-2 N
Protocol: as §1

SARS-CoV-2 NSP1 = biological target: SARS-CoV-2 NSP1
Protocol: as §1

SARS-CoV-2 NSP10 = biological target: SARS-CoV-2 NSP10
Protocol: as §1

SARS-CoV-2 NSP12 = biological target: SARS-CoV-2 NSP12
Protocol: as §1

SARS-CoV-2 NSP13 = biological target: SARS-CoV-2 NSP13
Protocol: as §1

SARS-CoV-2 NSP14 = biological target: SARS-CoV-2 NSP14
Protocol: as §1

SARS-CoV-2 NSP15 = biological target: SARS-CoV-2 NSP15
Protocol: as §1

SARS-CoV-2 NSP16 = biological target: SARS-CoV-2 NSP16
Protocol: as §1

SARS-CoV-2 NSP2 = biological target: SARS-CoV-2 NSP2
Protocol: as §1

SARS-CoV-2 NSP4 = biological target: SARS-CoV-2 NSP4
Protocol: as §1

SARS-CoV-2 NSP5 = biological target: SARS-CoV-2 NSP5
Protocol: as §1

SARS-CoV-2 NSP6 = biological target: SARS-CoV-2 NSP6
Protocol: as §1

SARS-CoV-2 NSP7 = biological target: SARS-CoV-2 NSP7
Protocol: as §1

SARS-CoV-2 NSP8 = biological target: SARS-CoV-2 NSP8
Protocol: as §1

SARS-CoV-2 NSP9 = biological target: SARS-CoV-2 NSP9
Protocol: as §1

SARS-CoV-2 ORF10 = biological target: SARS-CoV-2 ORF10
Protocol: as §1

SARS-CoV-2 ORF3A = biological target: SARS-CoV-2 ORF3A
Protocol: as §1

SARS-CoV-2 ORF3B = biological target: SARS-CoV-2 ORF3B
Protocol: as §1

SARS-CoV-2 ORF6 = biological target: SARS-CoV-2 ORF6
Protocol: as §1

SARS-CoV-2 ORF7A = biological target: SARS-CoV-2 ORF7A
Protocol: as §1

SARS-CoV-2 ORF7B = biological target: SARS-CoV-2 ORF7B
Protocol: as §1

SARS-CoV-2 ORF8 = biological target: SARS-CoV-2 ORF8
Protocol: as §1

SARS-CoV-2 ORF9B = biological target: SARS-CoV-2 ORF9B
Protocol: as §1

[1] = biological target: SARS-CoV-2 ORF9Bwu (the 73-codon ORF)
Protocol: as §1

SARS-CoV-2 S = biological target: SARS-CoV-2 S
Protocol: as §1

| Binder | yeast fitness gain (SARS-CoV-2 E) | yeast fitness gain (SARS-CoV-2 M) | yeast fitness gain (SARS-CoV-2 N) | yeast fitness gain (SARS-CoV-2 NSP1) | yeast fitness gain (SARS-CoV-2 NSP10) | yeast fitness gain (SARS-CoV-2 NSP12) | yeast fitness gain (SARS-CoV-2 NSP13) | yeast fitness gain (SARS-CoV-2 NSP14) | yeast fitness gain (SARS-CoV-2 NSP15) | yeast fitness gain (SARS-CoV-2 NSP16) | yeast fitness gain (SARS-CoV-2 NSP2) | yeast fitness gain (SARS-CoV-2 NSP4) | yeast fitness gain (SARS-CoV-2 NSP5) | yeast fitness gain (SARS-CoV-2 NSP6) | yeast fitness gain (SARS-CoV-2 NSP7) | yeast fitness gain (SARS-CoV-2 NSP8) | yeast fitness gain (SARS-CoV-2 NSP9) | yeast fitness gain (SARS-CoV-2 ORF10) | yeast fitness gain (SARS-CoV-2 ORF3A) | yeast fitness gain (SARS-CoV-2 ORF3B) | yeast fitness gain (SARS-CoV-2 ORF6) | yeast fitness gain (SARS-CoV-2 ORF7A) | yeast fitness gain (SARS-CoV-2 ORF7B) | yeast fitness gain (SARS-CoV-2 ORF8) | yeast fitness gain (SARS-CoV-2 ORF9B) | yeast fitness gain [1] | yeast fitness gain (SARS-CoV-2 S) |
| --- | --- | --- | --- | --- | --- | --- | --- | --- | --- | --- | --- | --- | --- | --- | --- | --- | --- | --- | --- | --- | --- | --- | --- | --- | --- | --- | --- |
| TIMM23, O14925 (protein) MEGGGGSGNKTTGGLAGFFGAGGAGYSHADLAGVPLTGMNPLSPYLNVDPRYLVQDTDEFILPTGANKTRGRFELAFFTIGGCCMTGAAFGAMNGLRLGLKETQNMAWSKPRNVQILNMVTRQGALWANTLGSLALLYSAFGVIIEKTRGAEDDLNTVAAGTMTGMLYKCTGGLRGIARGGLTGLTLTSLYALYNNWEHMKGSLLQQSL | inactive: 0.0661 | inactive: 0.00501 | inactive: -0.0452 | inactive: -0.00658 | inactive: 0.0277 | inactive: -0.0617 | inactive: 0.0196 | inactive: -0.133 | inactive: 0.0476 | inactive: 0.0633 | inactive: -0.0676 | inactive: -0.0458 | inactive: -0.0159 | inactive: 0.0177 | inactive: 0.00903 | inactive: -0.00244 | inactive: 0.0778 | inactive: 0.0115 | inactive: -0.0688 | inactive: 0.0469 | inactive: 0.0476 | inactive: 0.0085 | inactive: 0.0345 | inactive: 0.00904 | inactive: 0.0158 | inactive: 0.0886 | inactive: 0.0352 |
| TMEM252, Q8N6L7 (protein) MQNRTGLILCALALLMGFLMVCLGAFFISWGSIFDCQGSLIAAYLLLPLGFVILLSGIFWSNYRQVTESKGVLRHMLRQHLAHGALPVATVDRPDFYPPAYEESLEVEKQSCPAEREASGIPPPLYTETGLEFQDGNDSHPEAPPSYRESIAGLVVTAISEDAQRRGQEC | inactive: -0.00477 | inactive: 0.0741 | – | inactive: 0.0312 | inactive: 0.0496 | inactive: 0.0417 | inactive: -0.0112 | inactive: 0.0284 | inactive: -0.0491 | inactive: 0.00957 | inactive: -0.0504 | inactive: 0.0144 | inactive: 0.00499 | inactive: 0.065 | inactive: 0.00323 | inactive: 0.0434 | inactive: 0.0586 | inactive: 0.0285 | inactive: 0.111 | inactive: 0.0314 | inactive: -0.062 | inactive: -0.054 | inactive: 0.0423 | inactive: 0.0591 | inactive: 0.0382 | inactive: 0.0262 | inactive: 0.0241 |
| TOMM34, Q15785 (protein) MAPKFPDSVEELRAAGNESFRNGQYAEASALYGRALRVLQAQGSSDPEEESVLYSNRAACHLKDGNCRDCIKDCTSALALVPFSIKPLLRRASAYEALEKYPMAYVDYKTVLQIDDNVTSAVEGINRMTRALMDSLGPEWRLKLPSIPLVPVSAQKRWNSLPSENHKEMAKSKSKETTATKNRVPSAGDVEKARVLKEEGNELVKKGNHKKAIEKYSESLLCSNLESATYSNRALCYLVLKQYTEAVKDCTEALKLDGKNVKAFYRRAQAHKALKDYKSSFADISNLLQIEPRNGPAQKLRQEVKQNLH | inactive: 0.0807 | inactive: -0.000551 | inactive: 0.184 | inactive: 0.031 | inactive: 0.0251 | inactive: 0.0334 | inactive: -0.0418 | inactive: 0.0296 | inactive: 0.0764 | inactive: 0.023 | active: 0.216 | inactive: -0.00023 | inactive: 0.00349 | inactive: 0.0269 | inactive: -0.0165 | inactive: 0.0828 | inactive: -0.109 | inactive: 0.0165 | inactive: 0.101 | inactive: 0.0319 | inactive: 0.0299 | inactive: 0.0174 | inactive: -0.00317 | inactive: 0.0287 | inactive: 0.0346 | inactive: -0.0658 | inactive: 0.0322 |
| TREML2, Q5T2D2 (protein) MAPAFLLLLLLWPQGCVSGPSADSVYTKVRLLEGETLSVQCSYKGYKNRVEGKVWCKIRKKKCEPGFARVWVKGPRYLLQDDAQAKVVNITMVALKLQDSGRYWCMRNTSGILYPLMGFQLDVSPAPQTERNIPFTHLDNILKSGTVTTGQAPTSGPDAPFTTGVMVFTPGLITLPRLLASTRPASKTGYSFTATSTTSQGPRRTMGSQTVTASPSNARDSSAGPESISTKSGDLSTRSPTTGLCLTSRSLLNRLPSMPSIRHQDVYSTVLGVVLTLLVLMLIMVYGFWKKRHMASYSMCSDPSTRDPPGRPEPYVEVYLI | inactive: 0.0842 | inactive: 0.0629 | – | inactive: -0.0999 | inactive: -0.00404 | inactive: 0.0675 | inactive: 0.0332 | inactive: -0.375 | inactive: 0.0592 | inactive: 0.0494 | inactive: -0.113 | – | inactive: 0.0411 | inactive: 0.0669 | inactive: 0.113 | inactive: 0.0038 | inactive: -0.128 | inactive: 0.0221 | inactive: -0.0699 | inactive: -0.017 | inactive: -0.0389 | inactive: 0.0417 | inactive: 0.0406 | inactive: -0.0166 | inactive: 0.0244 | inactive: -0.0407 | inactive: 0.0277 |
